Experimental findings from PubChem BioAssay (NCI) are described below.

SMILES strings stand for the structures.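 Growth conditions: 96-well plates. Treatment: test compound, 48 hours, 5 concentrations. Analysis: linear interpolation between bracketing concentrations; unreached endpoints set to highest concentration. Abbreviation: GI50, concentration required for 50% inhibition of growth. TGI: concentration producing complete growth inhibition.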

The subject of this test is NCI-H322M lung. The experiment in a line: NCI-60 cell line screen, 48 h.
Turning to `CN(C)c1nc(NCCNS(=O)(=O)c2ccc(C(=O)/C=C/c3ccc(Cl)cc3)cc2)nc(N2CCOCC2)n1`, the GI50 was 14.4 µM and the TGI is 27.5 µM.
In the case of `C=C1CCC2C3(C)COC(c4ccco4)OC3CCC2(C)C1CC(Sc1ccccc1)C1=CCOC1=O` (configuration not stated), the GI50 is 42.7 µM and the TGI is above 100 µM.
In the same order, the values of `C/C(=C\CC/C=C(\C)CC/C=C(\C)CC[C@@H](O)C(C)(C)O)CC/C=C(\C)CC[C@@H](O)C(C)(C)O` are 15.7 µM and 29.2 µM.
The corresponding values for `CCN1CCN(c2ccc(NC(=O)Nc3ccc(-c4cc(C(=O)NC)c5ncccc5n4)cc3)cc2C(F)(F)F)CC1` are 2.8 µM and 5.2 µM.
For `CC[C@]12C=CCN3CC[C@@]4(c5ccc(OC)cc5N(C)[C@H]4[C@@](O)(C(=O)OC)[C@@H]1OC(=O)CCC[P+](c1ccc(F)cc1)(c1ccc(F)cc1)c1ccc(F)cc1)[C@@H]32`, the GI50 was above 48.5 µM and the TGI was above 48.5 µM.
For the molecule `NS(=O)(=O)c1ccc(N2N=C(c3ccc(NC(=O)Nc4ccccc4)cc3)CC2c2ccc(Br)cc2)cc1` (configuration not stated), the GI50 was 3.51 µM and the TGI is 13.5 µM.
